These results are taken from paper PMC4336329 (PLoS ONE, 2015).

Molecules are shown by their SMILES. The campaign covered roughly 310,000 compounds. About 2,200 (0.71%) showed an effect of 50% or more. Effects have a minus sign here. The list shows a part of the results.

Chain of human ether-à-go-go-related gene (hERG) potassium channel (Q12809 whole entry, looked up): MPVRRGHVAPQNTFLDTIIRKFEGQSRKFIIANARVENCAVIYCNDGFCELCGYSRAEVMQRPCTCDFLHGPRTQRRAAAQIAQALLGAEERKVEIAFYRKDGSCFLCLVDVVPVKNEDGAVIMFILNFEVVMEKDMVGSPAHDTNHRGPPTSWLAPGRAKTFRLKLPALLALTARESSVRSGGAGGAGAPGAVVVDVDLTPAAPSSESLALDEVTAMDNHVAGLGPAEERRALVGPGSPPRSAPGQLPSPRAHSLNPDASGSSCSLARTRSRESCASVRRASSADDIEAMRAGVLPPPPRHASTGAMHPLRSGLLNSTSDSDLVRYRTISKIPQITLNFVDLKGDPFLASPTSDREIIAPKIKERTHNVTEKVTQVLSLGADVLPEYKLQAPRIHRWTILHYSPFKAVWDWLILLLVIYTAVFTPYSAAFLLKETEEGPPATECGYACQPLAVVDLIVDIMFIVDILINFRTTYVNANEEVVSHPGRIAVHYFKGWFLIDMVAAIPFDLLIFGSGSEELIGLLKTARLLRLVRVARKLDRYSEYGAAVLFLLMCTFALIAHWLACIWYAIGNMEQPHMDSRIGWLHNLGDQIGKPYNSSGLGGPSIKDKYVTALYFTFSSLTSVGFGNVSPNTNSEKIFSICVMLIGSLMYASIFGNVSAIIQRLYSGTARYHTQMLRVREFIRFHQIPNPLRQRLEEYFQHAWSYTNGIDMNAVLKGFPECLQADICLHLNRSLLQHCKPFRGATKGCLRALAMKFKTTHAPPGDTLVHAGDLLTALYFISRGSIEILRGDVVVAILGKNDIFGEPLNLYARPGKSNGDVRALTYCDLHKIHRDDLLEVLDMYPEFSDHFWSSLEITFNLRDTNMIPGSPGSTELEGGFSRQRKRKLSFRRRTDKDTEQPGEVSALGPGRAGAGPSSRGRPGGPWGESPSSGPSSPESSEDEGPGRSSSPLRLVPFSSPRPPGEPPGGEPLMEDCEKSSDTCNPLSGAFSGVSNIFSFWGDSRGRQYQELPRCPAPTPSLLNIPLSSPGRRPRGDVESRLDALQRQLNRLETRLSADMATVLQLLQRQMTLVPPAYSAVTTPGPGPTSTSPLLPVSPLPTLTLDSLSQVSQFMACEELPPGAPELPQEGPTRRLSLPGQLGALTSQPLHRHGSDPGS

The experiment has as its target human ether-à-go-go-related gene (hERG) potassium channel (human, UniProt Q12809). In words: primary screen, population patch clamp on CHO cells stably expressing hERG.
As to `O=C(CSc1cccc2cccnc12)OCC(=O)c1ccc(Br)cc1`, the “hERG current change (%, negative = inhibition) at 1uM” value is listed as -3.27%.
In the case of `COc1ccc(NC(=O)CSc2nccn2Cc2ccccc2)cc1` it was 11.6%.
Regarding `O=C(O)CC(c1ccccc1)N1C(=O)c2cccc([N+](=O)[O-])c2C1=O` (centres unmarked), the “hERG current change (%, negative = inhibition) at 1uM” value is reported as 13.8%.
In the case of `Cc1cc(C)c(Cn2c(=O)n(CCCC(=O)NCc3ccco3)c(=O)c3ccccc32)c(C)c1` it was 12%; in that of `CCN(CC)C(=O)Oc1ccc2c(c1)O/C(=C\c1ccco1)C2=O`, 13.6%.
In the case of `Cc1cc(C)n(CC(O)Cn2c3ccccc3c3ccccc32)n1.[Cl-]` (centres unmarked) it was -0.723%; in that of `Cc1cnc(C(=O)OCC(=O)Nc2cccc(Cl)c2)cn1`, 15.1%.
As for `CC1CCc2c(sc3ncnc(SC(C)C(=O)NCC4CCCO4)c23)C1` (centres unmarked), the “hERG current change (%, negative = inhibition) at 1uM” value is on record as 10.7%.
As for `COCCCNC(=O)CCCC(=O)NCCCOC`, the figure is 17.7%; as for `Cc1ccc(C(C(=O)NC2CCCC2)N(C(=O)c2csnn2)c2cccc(F)c2)o1` (centres unmarked), 15.4%; as for `Cc1ccc(CNCC(O)(c2ccccc2)c2ccccc2)cc1`, 10.8%.
In the case of `Cc1ccccc1N1CCN(S(=O)(=O)C[C@]23CCC(CC2NC(=O)[C@@H](N)CCS(C)(=O)=O)C3(C)C)CC1.Cl` (some centres unmarked) it was 13%; in that of `COc1cccc(SCc2noc(C(=O)NCC3CCCO3)c2C(=O)O)c1` (centres unmarked), 12.4%.
In the case of `CC(NC(=O)c1ccc(S(=O)(=O)C(F)F)cc1)c1ccccc1` (centres unmarked) it was 8.61%; in that of `CC(=O)Nc1ccc(S(=O)(=O)N2CCc3c(Cl)cccc3C2)cc1`, 11.5%.
On to `CC(C)(C)NC(=O)C(c1ccc(O)cc1)N(C(=O)Cn1nnc(-c2ccc(F)cc2)n1)c1ccccc1F` (centres unmarked), for which the “hERG current change (%, negative = inhibition) at 1uM” value came to 9.27%.
In the case of `CN(C)c1ccc(NC(=O)COC(=O)Cn2nnc3ccccc32)cc1` it was -6.97%; in that of `Cc1cc(C)cc(OCC(=O)NNC(=O)CCN2C(=O)c3ccccc3C2=O)c1`, 11.4%.
As for `Cc1cccc(CCNC(=O)CCc2nnc(CCc3ccccc3)o2)n1`, the figure is 12.1%; as for `Clc1ccc(OCc2cc(-c3ccccc3)no2)c(Cl)c1`, 12.3%.
`CN(C)S(=O)(=O)c1cccc(NC(=O)COC(=O)COc2ccc(Br)cc2)c1`: the “hERG current change (%, negative = inhibition) at 1uM” value is listed as -6.16%.
In the case of `COc1cccc(C(=O)NNC(=O)c2ccccc2)c1` it was 7.51%; in that of `CCC(NC(=O)OC(C)(C)C)C(=O)Oc1cc(C)cc2oc(=O)c3c(c12)CCC3` (centres unmarked), -4.06%.
In the case of `Cc1noc(C)c1COC(=O)Cc1ccc(Cl)c(Cl)c1` it was 15.4%; in that of `O=C(COC(=O)CNS(=O)(=O)c1c(Cl)cccc1Cl)Nc1ccccc1Sc1ccccc1`, 9.73%.
With `CCOC(=O)c1[nH]c(C)c(C(=O)Nc2cc(Cl)ccc2C)c1C`, the “hERG current change (%, negative = inhibition) at 1uM” value was determined as 10.2%.
In the case of `Cl.N=c1c2c(n(Cc3ccc(Cl)cc3)c3c1CCC3)CCC2` it was 8.99%; in that of `Cc1ccc2nnnc(-c3ccccc3)c2c1`, 2.74%; in that of `COc1ccc(Cl)cc1S(=O)(=O)Nc1cccc(C(=O)O)c1`, 5.17%.
In the case of `Cc1nn(CC(=O)N2CCN(S(=O)(=O)c3ccccc3)CC2)c(C)c1[N+](=O)[O-]` it was 5.34%.
In the case of `Cc1cc(C(=O)CSc2nnc(NCc3ccccc3)s2)c(C)n1C` it was 7.29%; in that of `Cc1cc(C)n(S(=O)(=O)c2cccc(Cl)c2Cl)n1`, -2.48%.
Turning to `Cn1c(CNC(=O)c2ccco2)nnc1SCC(=O)N1CCN(c2ccccc2)CC1`, the “hERG current change (%, negative = inhibition) at 1uM” value amounted to 12.4%.
As for `CCN1CCN(C(=O)/C(=C/c2cccs2)NC(=O)c2ccc(C)c(C)c2)CC1`, the figure is -83.5%.
As for `COc1ccc(CCNC(=O)C(=O)Nc2ccc3c(c2)OCCO3)cc1OC`, the figure is 14.4%; as for `COCCNC(=O)Cn1cc(/C=C2\C(=O)NC(=O)N(c3ccccc3F)C2=O)c2ccccc21`, 9.47%.
As for `COc1cccc(CNC(=O)CCCc2c[nH]c3ccccc23)c1`, the figure is -0.935%.
Turning to `CCN(Cc1ccccc1)S(=O)(=O)c1cc(C(=O)c2c(N)n(C)c(=O)n(C)c2=O)ccc1OC`, the “hERG current change (%, negative = inhibition) at 1uM” value turned out to be 5.77%.
In the case of `CCc1nnc(NC(=O)c2ccc(Br)c(S(=O)(=O)N3CCOCC3)c2)s1` it was 20%; in that of `O=C(O)CCC(=O)N1CCc2cc(S(=O)(=O)N3CCC(Cc4ccccc4)CC3)ccc21`, 9.88%; in that of `COc1ccc(Cn2c(CCC(=O)Nc3ccc(CC#N)cc3)nc3cccnc32)cc1`, 1.71%.
In the case of `Cc1ccc(NC2=C(Cl)C(=O)OC2OC(=O)c2ccc(C)cc2)cc1` (centres unmarked) it was 0.499%; in that of `CC(C)c1c(O)nc(SCc2ccc(F)cc2)[nH]c1=O`, 18.5%; in that of `COC(=O)CN1C(=O)C(C)(C)Oc2ccc(C(=O)NC3CC3)cc21`, 2.52%.
In the case of `COc1ccccc1NC(=O)COC(=O)c1ccc2c(c1)OCCO2` it was 9.82%.
In the case of `COC(=O)C1=CN(Cc2ccc(C)cc2)C=C(C(=O)OC)C1c1cc(OC)c(OC)c(OC)c1`, the “hERG current change (%, negative = inhibition) at 1uM” value is -2.32%.
As for `CCOC(=O)c1cncc(C#CCO)c1`, the figure is 6.47%.
Take `COc1ccc(CNC(=O)COC(=O)c2ccc(C)c(S(=O)(=O)N3CCOCC3)c2)cc1OC`: the “hERG current change (%, negative = inhibition) at 1uM” value is 7.56%.
In the case of `Cc1ccc(/C(O)=C/C(=O)C(=O)NC23CC4CC(CC(C4)C2)C3)cc1` it was 5.19%; in that of `CCC(NC(=S)NC1CCCCC1)c1ccc(C(C)C)cc1` (centres unmarked), 11.3%; in that of `CCOC(=O)/C(=C/C=C1\Sc2cc(OCC)c(OCC)cc2N1CC)C(C)=O`, 9.18%.
In the case of `COc1ccc(-c2nnc(SCc3nc4ccccc4s3)n2C(C)C)cc1` it was -16.1%; in that of `COc1ccc(S(=O)(=O)c2c(N)n(Cc3ccco3)c3nc4ccccc4nc23)cc1`, -2.24%; in that of `c1cncc(-c2nn[nH]n2)c1`, 1.97%.
For the molecule `COC(=O)C1=C(C)NC(=O)CC1c1ccc(C(=O)OC)cc1` (centres unmarked), the “hERG current change (%, negative = inhibition) at 1uM” value is 11.8%.
As for `CCCCNC(=O)c1cn(C)c2ccc(S(=O)(=O)N3CCCC3)cc2c1=O`, the figure is 14.8%; as for `O=C(CSc1nnc(C2CC2)n1-c1ccccc1)NCCc1ccccc1`, 9.1%.
As for `CCC1CCCCN1Cc1ccc(CNC(=O)CCc2nnc3ccc(N4CCCCC4)nn23)o1` (centres unmarked), the figure is 15.6%; as for `c1cnc2ccc(C(c3nnnn3C3CCCC3)N3CCSCC3)cc2c1` (centres unmarked), 11.3%.
As for `COc1ccc(CCN2CCCC(CN(C)C(=O)c3ccoc3)C2)cc1` (centres unmarked), the figure is -32.6%; as for `Cc1cccc(C)c1NC(=O)CN1CCN(CC(=O)NCC2(N3CCCCC3)CCCCC2)CC1`, 2.79%.
Take `CC(C(=O)Nc1ccccc1F)N1CCN(C)CC1.O=C(O)C(=O)O` (centres unmarked): the “hERG current change (%, negative = inhibition) at 1uM” value is on record as 12.8%.
As for `CN1/C(=C\C=N\NC(=O)c2ccc(O)cc2)C(C)(C)c2ccccc21`, the figure is -8.49%; as for `C=CCn1c(SCC(=O)NC2CCCC2)nnc1-c1cccnc1`, 14.5%.
As for `O=C(Nc1cccc(-c2ccc(N3CCOCC3)nn2)c1)c1ccc([N+](=O)[O-])cc1`, the figure is -7.8%; as for `COC(=O)Cc1[nH]n(-c2nc3ccccc3s2)c(=O)c1C(C)=Nc1ccc(C)cc1`, 13.2%; as for `CC(C)Cn1c(N)c(C(=O)COC(=O)c2cnccn2)c(=O)n(C)c1=O`, -4.07%.
Turning to `O=C(NCc1ccco1)c1ccc2c(c1)C(=O)N(C1CCCCC1)C2=O`, the “hERG current change (%, negative = inhibition) at 1uM” value was -24.9%.
As for `O=C(Cn1ncc2c([nH]c3ccccc32)c1=O)N1CCCCC1`, the figure is 13.8%.
As for `CCOc1cc(C)c(Cl)cc1S(=O)(=O)n1cnc2ccccc21`, the figure is -7.1%.
As for `Cc1cc(C(=O)N/N=C/C=C/c2cccc([N+](=O)[O-])c2)n[nH]1`, the figure is 5.05%.
For the molecule `CC(C)CCNC(=O)c1cccc(S(=O)(=O)N2CCc3ccccc32)c1`, the “hERG current change (%, negative = inhibition) at 1uM” value is reported as 6.72%.
`CCOC(=O)C(NC(=O)c1ccc(OC)cc1)(N1CCCC1=O)C(F)(F)F` (centres unmarked): the “hERG current change (%, negative = inhibition) at 1uM” value was 12.5%.
Regarding `CCC(C(=O)Nc1ccsc1C(=O)OC)c1ccccc1` (centres unmarked), the “hERG current change (%, negative = inhibition) at 1uM” value was 13%.
As for `CCOc1ccc2oc(C(=O)N(Cc3nnc(-c4ccccc4Cl)o3)C3CC3)c(C)c2c1`, the figure is -2.03%; as for `COc1ccc(CCNCc2csc3nc4ccccc4n23)cc1OC.Cl`, 9.39%.
In the case of `COc1ccc2c(O)c(-c3c(C)cc(C)cc3C)c(=O)[nH]c2c1` it was 4.58%.
In the case of `O=C(NCC(=O)N(c1ccc(F)cc1)C(C(=O)NC1CCCC1)c1cccnc1)c1ccco1` (centres unmarked) it was 11.3%; in that of `CCN(CC)S(=O)(=O)c1ccc(N2CCOCC2)c(NS(=O)(=O)c2ccc(OC)cc2)c1`, 5.01%.
Take `O=C(O)c1cncc(Br)c1`: the “hERG current change (%, negative = inhibition) at 1uM” value worked out at 8.7%.
As for `Cc1ccc(NC(=O)C2CCN(S(=O)(=O)c3ccc4c(c3)NC(=O)C(C)S4)CC2)cc1C` (centres unmarked), the figure is 9.41%; as for `CCCCc1nnc(NC(=O)COC)s1`, 16.3%; as for `CC(C)CNC(=O)C1CCCN(C(=O)NCc2ccccc2)C1` (centres unmarked), 0.705%.
In the case of `Cc1ccc(C(=O)Nc2cccnc2)cc1S(=O)(=O)N1CCCC1` it was 11.5%; in that of `O=C(Nc1ccc2c(c1)OCO2)c1sc2cc(Cl)ccc2c1Cl`, 9.08%; in that of `O=C(CSc1ccccn1)N1CCN(C(=O)CSc2ccccn2)CC1`, 4.15%.
